Reference: patent publication US20180021277A1, “ANTI-VIRULENCE COMPOSITIONS AND METHODS” (priority 2012, published 2018)

Target: AgrA-P3 complex (Staphylococcus aureus, UniProt P0A0I7)
Experiment: Electrophoretic mobility shift assay, AgrA with P3 promoter DNA
Details: tested at 0.1, 1 and 10 μM

Chain of AgrA-P3 complex (P0A0I7 whole entry, one chain of several): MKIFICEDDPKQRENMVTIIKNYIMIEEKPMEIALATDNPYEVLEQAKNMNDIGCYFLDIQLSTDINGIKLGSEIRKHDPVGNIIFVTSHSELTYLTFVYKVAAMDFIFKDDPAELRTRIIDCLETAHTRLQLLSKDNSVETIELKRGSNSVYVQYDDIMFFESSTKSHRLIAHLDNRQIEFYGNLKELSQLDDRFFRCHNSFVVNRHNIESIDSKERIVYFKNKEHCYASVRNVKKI

CCCCCCc1cc(C(=O)COc2ccc(F)cc2F)c(O)cc1O [4f-12]
concentration at which the band of the AgrA-P3 complex disappears: 10 µM
